According to article PMC3814391:
These are yes or no findings as the source states them, for the method shown. In cells and extracts the contact can be indirect. Some entries that bind do so weakly or less than the wild type. Blank lines part the entries; values can stand above or below the molecule they belong to.

Protein sequences, listed by entry. Tags and fused reporters are not part of them. Lines headed by an entry give the natural chain unless they say otherwise; changes in a name come on top. Chains listed by the source or under a name are the forms on record and can include a tag or linker.
UniProt Q9UQ84: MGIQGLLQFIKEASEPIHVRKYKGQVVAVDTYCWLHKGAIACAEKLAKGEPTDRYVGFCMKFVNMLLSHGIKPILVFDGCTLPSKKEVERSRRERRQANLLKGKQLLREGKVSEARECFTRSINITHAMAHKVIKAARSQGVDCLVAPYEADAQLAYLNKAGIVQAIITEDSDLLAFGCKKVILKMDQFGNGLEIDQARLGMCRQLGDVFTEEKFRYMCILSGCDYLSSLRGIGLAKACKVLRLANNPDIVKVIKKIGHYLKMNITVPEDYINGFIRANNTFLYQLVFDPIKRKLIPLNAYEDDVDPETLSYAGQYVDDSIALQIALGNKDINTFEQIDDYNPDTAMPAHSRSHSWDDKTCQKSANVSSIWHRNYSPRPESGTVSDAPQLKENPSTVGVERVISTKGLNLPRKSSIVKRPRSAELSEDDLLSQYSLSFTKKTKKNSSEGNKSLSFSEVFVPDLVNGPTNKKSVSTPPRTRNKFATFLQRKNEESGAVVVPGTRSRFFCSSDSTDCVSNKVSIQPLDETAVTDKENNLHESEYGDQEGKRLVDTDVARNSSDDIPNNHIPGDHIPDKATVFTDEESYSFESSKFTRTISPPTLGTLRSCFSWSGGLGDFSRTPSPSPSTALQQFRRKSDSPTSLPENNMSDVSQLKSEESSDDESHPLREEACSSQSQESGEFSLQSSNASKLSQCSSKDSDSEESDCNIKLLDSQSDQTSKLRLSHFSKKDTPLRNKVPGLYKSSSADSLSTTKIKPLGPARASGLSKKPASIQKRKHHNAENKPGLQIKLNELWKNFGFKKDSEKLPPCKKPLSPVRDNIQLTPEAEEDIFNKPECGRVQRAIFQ
FLAG-Exo1(ΔPIP) (Q9UQ84, form named): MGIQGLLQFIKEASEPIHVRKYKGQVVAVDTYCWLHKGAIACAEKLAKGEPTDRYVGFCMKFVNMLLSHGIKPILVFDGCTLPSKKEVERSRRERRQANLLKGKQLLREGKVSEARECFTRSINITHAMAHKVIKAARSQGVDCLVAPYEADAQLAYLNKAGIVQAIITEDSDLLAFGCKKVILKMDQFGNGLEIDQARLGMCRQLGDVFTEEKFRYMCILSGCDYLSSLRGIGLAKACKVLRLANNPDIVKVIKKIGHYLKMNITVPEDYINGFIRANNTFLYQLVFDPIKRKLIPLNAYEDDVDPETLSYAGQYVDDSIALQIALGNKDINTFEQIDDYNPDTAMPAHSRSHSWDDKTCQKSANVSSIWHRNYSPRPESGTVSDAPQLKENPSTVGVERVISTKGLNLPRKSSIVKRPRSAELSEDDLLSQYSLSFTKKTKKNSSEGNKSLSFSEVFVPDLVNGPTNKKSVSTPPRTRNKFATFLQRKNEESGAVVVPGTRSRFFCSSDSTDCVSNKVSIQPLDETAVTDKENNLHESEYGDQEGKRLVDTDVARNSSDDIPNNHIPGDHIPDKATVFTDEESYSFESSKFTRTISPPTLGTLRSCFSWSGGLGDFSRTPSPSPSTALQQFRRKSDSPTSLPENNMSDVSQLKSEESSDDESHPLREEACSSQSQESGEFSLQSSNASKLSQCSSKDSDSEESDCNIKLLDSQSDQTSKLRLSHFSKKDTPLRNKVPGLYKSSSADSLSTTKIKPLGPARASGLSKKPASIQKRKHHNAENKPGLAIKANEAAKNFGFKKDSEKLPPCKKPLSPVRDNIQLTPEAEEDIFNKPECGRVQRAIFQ
Exo1(PIPFen1-WT) (Q9UQ84, form named): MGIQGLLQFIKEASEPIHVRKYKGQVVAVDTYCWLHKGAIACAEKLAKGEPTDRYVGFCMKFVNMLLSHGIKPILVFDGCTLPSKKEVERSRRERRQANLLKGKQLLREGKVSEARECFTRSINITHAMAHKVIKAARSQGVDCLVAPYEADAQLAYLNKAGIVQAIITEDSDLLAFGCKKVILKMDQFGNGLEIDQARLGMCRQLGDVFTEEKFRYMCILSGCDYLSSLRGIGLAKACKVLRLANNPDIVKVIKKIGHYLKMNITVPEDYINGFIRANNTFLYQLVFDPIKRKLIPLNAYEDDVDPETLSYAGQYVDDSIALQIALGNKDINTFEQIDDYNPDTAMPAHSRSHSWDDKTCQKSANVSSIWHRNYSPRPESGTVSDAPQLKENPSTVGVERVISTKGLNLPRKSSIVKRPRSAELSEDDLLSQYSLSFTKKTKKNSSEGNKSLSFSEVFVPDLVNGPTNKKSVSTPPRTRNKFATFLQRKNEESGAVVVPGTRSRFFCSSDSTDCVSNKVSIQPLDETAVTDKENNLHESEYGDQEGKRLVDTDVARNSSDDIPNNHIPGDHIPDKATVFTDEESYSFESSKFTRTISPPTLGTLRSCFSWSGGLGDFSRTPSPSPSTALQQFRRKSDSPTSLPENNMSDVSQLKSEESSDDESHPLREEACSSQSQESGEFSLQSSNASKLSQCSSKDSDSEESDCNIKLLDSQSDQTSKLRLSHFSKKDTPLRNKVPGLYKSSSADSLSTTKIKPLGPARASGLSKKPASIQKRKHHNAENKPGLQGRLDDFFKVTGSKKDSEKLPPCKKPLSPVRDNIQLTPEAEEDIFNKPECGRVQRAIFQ
UniProt P12004: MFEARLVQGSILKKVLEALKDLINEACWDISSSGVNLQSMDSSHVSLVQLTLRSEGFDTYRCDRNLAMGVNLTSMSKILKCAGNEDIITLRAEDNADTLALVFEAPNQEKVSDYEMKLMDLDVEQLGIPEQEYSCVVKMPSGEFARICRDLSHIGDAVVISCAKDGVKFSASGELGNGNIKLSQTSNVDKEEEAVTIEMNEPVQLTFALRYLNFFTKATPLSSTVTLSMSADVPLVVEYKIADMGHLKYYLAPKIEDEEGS
UniProt P18248: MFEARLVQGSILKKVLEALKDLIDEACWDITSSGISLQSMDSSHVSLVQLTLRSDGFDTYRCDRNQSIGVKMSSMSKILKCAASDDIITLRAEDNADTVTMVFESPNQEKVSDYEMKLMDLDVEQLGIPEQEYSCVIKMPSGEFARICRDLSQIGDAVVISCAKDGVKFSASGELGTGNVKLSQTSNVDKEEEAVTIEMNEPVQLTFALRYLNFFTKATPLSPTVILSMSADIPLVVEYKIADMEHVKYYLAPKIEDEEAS

What was measured:
FLAG-Exo1(ΔPIP) (human) = FLAG-Exo1(ΔPIP) (human) (UniProt Q9UQ84); assay: co-IP; HEK293T lysate (20 mM Tris-HCl pH 8.0, 1 mM EDTA, 150 mM NaCl, 0.5% NP-40, 1 mM PMSF); FLAG-tagged Exo1 or mutant precipitated with M2-conjugated Sepharose, 4°C for 2 h; immunoblot
Exo1(PIPFen1-WT) = Exo1(PIPFen1-WT) (UniProt Q9UQ84); assay: as above
FLAG-tagged Exo1 (human) [1] = biological target: FLAG-tagged Exo1 (human) (UniProt Q9UQ84); assay: as above
FLAG-tagged Exo1 (human) [2] = biological target: FLAG-tagged Exo1 (human) (UniProt Q9UQ84); assay: co-IP; human cells overexpressing mCherry-PIPp21-WT-NLS as competitor (Supplementary Figure S4)
[3] = biological target: T1, Xenopus Exo1 (Xenopus (endogenous in egg nuclear extract)) (UniProt Q9W6K2); assay: co-IP; Xenopus nuclear extract with PIPp21-WT or PIPp21-MUT peptide added; xExo1-xPCNA interaction (Figure 5A)
T1 sequence: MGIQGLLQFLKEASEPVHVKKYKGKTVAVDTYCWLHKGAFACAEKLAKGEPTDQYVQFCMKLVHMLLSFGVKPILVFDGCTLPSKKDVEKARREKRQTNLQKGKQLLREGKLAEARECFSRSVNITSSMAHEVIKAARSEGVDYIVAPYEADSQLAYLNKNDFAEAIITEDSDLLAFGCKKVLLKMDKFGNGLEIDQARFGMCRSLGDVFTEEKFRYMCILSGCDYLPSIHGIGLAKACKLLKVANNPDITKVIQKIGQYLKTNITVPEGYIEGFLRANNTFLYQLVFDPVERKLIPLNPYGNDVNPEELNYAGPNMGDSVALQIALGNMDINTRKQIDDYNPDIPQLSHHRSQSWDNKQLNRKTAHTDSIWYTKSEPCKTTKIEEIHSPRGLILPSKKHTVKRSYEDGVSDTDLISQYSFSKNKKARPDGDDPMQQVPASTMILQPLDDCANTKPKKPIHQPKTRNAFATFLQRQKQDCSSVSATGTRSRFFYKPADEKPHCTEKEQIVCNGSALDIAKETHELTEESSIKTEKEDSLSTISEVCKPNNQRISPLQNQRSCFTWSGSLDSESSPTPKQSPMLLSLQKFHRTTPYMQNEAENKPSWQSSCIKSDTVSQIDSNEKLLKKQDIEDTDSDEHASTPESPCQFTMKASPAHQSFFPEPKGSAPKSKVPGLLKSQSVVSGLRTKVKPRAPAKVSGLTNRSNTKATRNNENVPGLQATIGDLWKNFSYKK

[4] = biological target: T1, Xenopus Exo1 (Xenopus (endogenous in egg nuclear extract)); assay: co-IP; Xenopus nuclear protein extract; Protein A-Sepharose beads pre-bound by anti-xExo1 or anti-xPCNA antibodies, 4°C for 2 h; immunoblot
[5] = biological target: PCNA (human cells) (human (endogenous in HEK293T)) (UniProt P12004); assay: co-IP; human cells overexpressing mCherry-PIPp21-WT-NLS as competitor (Supplementary Figure S4)

binding (FLAG-Exo1(ΔPIP) (human)): no binding | binding (Exo1(PIPFen1-WT)): binds | binding (FLAG-tagged Exo1 (human) [1]): binds | binding (FLAG-tagged Exo1 (human) [2]): binds
Molecule: PCNA (human cells) (from UniProt P12004 1-261)

binding [3]: binds | binding [4]: binds
Molecule: Xenopus PCNA (from UniProt P18248 1-261)

binding [5]: binds
B1: mCherry-PIPp21-WT-NLS (domain or fragment)
chain: DLSLSCTLVPRSGEQAEGSPGGPGDSQGRKRRQTSMTDFYHSKRRAIAS
